In PubChem BioAssay AID1745853 (National Center for Advancing Translational Sciences (NCATS), 2022) one finds activity change, negative = inhibition data, which are given here for 29 compounds.

SMILES strings stand for the structures. Where “and” joins values, the source holds several entries; their conditions need not be identical. Equal entries are not always repeated. The list shows a part of the results. Further columns of the screen follow, without active or inactive calls.

Common to all, as to experiment: Primary Screen for Target Class Profiling of Small Molecule Inhibitors of Methyltransferases
In test [1] the target is Glycine N-methyltransferase (Homo sapiens) (UniProt Q14749). The note with it: purified enzyme, MTase-Glo SAH luminescence; measured here: GNMT inhibition; at 40 µM; stronger effect = lower value. The essentials:
(§1)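 Each enzyme was assayed with SAM and its substrate. SAH formation detected by MTase-Glo luminescence; single-point 40 uM screen[…].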

The target of test [2] is Guanidinoacetate N-methyltransferase (Homo sapiens) (UniProt Q14353). The following applies: purified enzyme, MTase-Glo SAH luminescence; measured here: GAMT inhibition; at 40 µM; stronger effect = lower value. The essentials:
as §1

The target of test [3] is Histamine N-methyltransferase (Homo sapiens) (UniProt P50135). The following applies: purified enzyme, MTase-Glo SAH luminescence; measured here: HNMT inhibition; at 40 µM; stronger effect = lower value. The essentials:
as §1

For test [4], the target named is Nicotinamide N-methyltransferase (Homo sapiens) (UniProt P40261). The following applies: purified enzyme, MTase-Glo SAH luminescence; measured here: NNMT inhibition; at 40 µM; stronger effect = lower value. An outline of the steps:
as §1

For test [5], the target named is Phenylethanolamine N-methyltransferase (Homo sapiens) (UniProt P11086). The following applies: purified enzyme, MTase-Glo SAH luminescence; measured here: PNMT inhibition; at 40 µM; stronger effect = lower value. The essentials: as §1
On the % scale 0 is the no-effect control and ±100 the full control effect.

Take `CC(C)Cn1c(=O)c2ccccc2n2c(CCC(=O)NCc3cccnc3)nnc12`: the activity change, negative = inhibition in test [1] is -3.18%; in test [2], 0%; in test [3] it was -7.45%; in test [4], -2.76%; in test [5] it was -9.67%.
On the same counts, the results for `CC(C)Cn1c(=O)c2ccc(C(=O)NC(C)C)cc2n2c(SCC(=O)Nc3ccccc3F)nnc12` are -4.25%, -1.53%, -1.24%, -8% and -4.61%.
With `Cc1nn(-c2ccccc2)c2c1C(C(C)C)N(C1CCCN(C(=O)c3ccccc3F)C1)C2=O` (stereo not given), the activity change, negative = inhibition in test [1] was -1.27%; in test [2], -0.37%; in test [3] it was -3.04%; in test [4], -5.24%; in test [5], 1%.
Consider `CCOCCn1c(=O)n(Cc2cc(OC)ccn2)c2cc(C(=O)O)cnc21`, for which the activity change, negative = inhibition is -3.46% in test [1]; 0.363% in test [2]; 0.252% in test [3]; -4.6% in test [4]; -4.44% in test [5].
As to `CC(C)CCN1C(=O)c2ccccc2CC1(C)C(=O)NC1CCCCC1` (stereo not given), the activity change, negative = inhibition is 1.42% in test [1]; 0% in test [2]; 6.74% in test [3]; 5.49% in test [4]; -0.046% in test [5].
As for `COc1ccccc1CCNC(=O)CCn1ccc2cc(S(=O)(=O)N3CCC(C)CC3)ccc21`, the activity change, negative = inhibition in test [1] is 0.415%; in test [2], 0%; in test [3], 1.09%; in test [4], -7.25%; in test [5] it was 0.772%.
In the case of `CCC(C)NC(=O)c1ccc2c(=O)n(C(C)C)c3nn(Cc4ccccc4F)c(=O)n3c2c1` (stereo not given), the activity change, negative = inhibition was -6.23% in test [1]; -0.855% in test [2]; -0.122% in test [3]; -10.2% in test [4]; -6.04% in test [5].
`COc1ccc(CN2C(=O)COC[C@H]2C(=O)N2CCc3ccccc3C2)c(OC)c1`: the activity change, negative = inhibition in test [1] is -9.68%; in test [2], -10.1%; in test [3] it was -5.3%; in test [4], -11.4%; in test [5], -9.29%.
With `COc1ccc(Cl)cc1C(=O)NCCc1ccc(S(=O)(=O)NC(=O)NC2CCCCC2)cc1`, the activity change, negative = inhibition in test [1] was -4.22% and -5.05%; in test [2], -4.84% and 15.7%; in test [3], 10.5% and 8.5%; in test [4], -25% and -2.14%; in test [5], -3.2% and 7.5%.
As for `O=C1[C@H]2CN(Cc3ccncc3)C[C@H]2C(=O)N1Cc1ccc2c(c1)OCO2`, the activity change, negative = inhibition was -11.1% in test [1]; -8.28% in test [2]; -2.85% in test [3]; -13.3% in test [4]; -13% in test [5].
As for `CC(C)n1c(=O)c2ccc(C(=O)NC3CCCC3)cc2n2c(=O)n(Cc3ccccc3F)nc12`, the activity change, negative = inhibition in test [1] is -0.858%; in test [2] it was 4.9%; in test [3], 8.07%; in test [4], -2.43%; in test [5], 1.88%.
Consider `CC(=O)CCC1=C(C)C(O[C@@H]2O[C@H](CO)[C@@H](O)[C@H](O)[C@H]2O)C(O)CC1(C)C` (stereo not given in full), for which the activity change, negative = inhibition in test [1] was 0.48%; in test [2], 7.68%; in test [3], 12.1%; in test [4], -3.43%; in test [5], 6.17%.
`CC[N+]1(C/C2=C/CCCCCC2)CCC(NC(=O)C2c3cc(Cl)ccc3Oc3ccc(Cl)cc32)CC1` (stereo not given): the activity change, negative = inhibition in test [1] is -12.8%; in test [2], 3.82%; in test [3], -55.2%; in test [4], -28.4%; in test [5] it was -3.01%.
On to `COc1ccc(CNC(=O)c2cc3n(n2)CC(C)(C(=O)NCCC(C)C)N(C)C3=O)cc1OC` (stereo not given), for which the activity change, negative = inhibition in test [1] worked out at 9.64%; in test [2], 1.06%; in test [3] it was 8.22%; in test [4], 12.4%; in test [5] it was 5.11%.
In the same order, the values of `O=C(O)c1ccc2c(c1)N(C(=O)c1ccc(F)cc1)CC2` are -1.44%, 0.076%, 1.61%, -1.92% and 0.634%.
As for `C[C@H]1[C@@H]2[C@@H](O)C([C@H](C)C(=O)NCc3cccnc3)CC[C@@]2(C)CC[C@@H]1NC(=O)c1ccccn1` (stereo not given in full), the activity change, negative = inhibition is -5.92% in test [1]; -4.1% in test [2]; -2.93% in test [3]; 6.13% in test [4]; 12% in test [5].
As to `C[C@@H]1CN(C[C@@H]2CN(C(=O)c3ccsc3)C[C@@H]2CO)C[C@H](C)O1`, the activity change, negative = inhibition was -0.895% in test [1]; 0.304% in test [2]; -0.523% in test [3]; 0.252% in test [4]; -4.5% in test [5].
For the compound `CC(C)(C)CC(=O)N[C@H]1CO[C@H]2[C@@H]1OC[C@H]2OCC(N)=O`, the activity change, negative = inhibition was 0.737% in test [1]; -2.15% in test [2]; 3.02% in test [3]; -1.31% in test [4]; 4.67% in test [5].
For the compound `CCN(CC)CCCCCCCCOC(=O)c1cc(OC)c(OC)c(OC)c1`, the activity change, negative = inhibition was -1.79% in test [1]; 8.6% in test [2]; -37.1% in test [3]; -8.39% in test [4]; -3.52% in test [5].
Take `Cc1ccc(CNC(=O)Cn2nc3n(CCC(C)C)c(=O)c4ccc(C(=O)NC(C)C)cc4n3c2=O)cc1`: the activity change, negative = inhibition is 5.35% in test [1]; 0% in test [2]; 3.96% in test [3]; 7.39% in test [4]; 3.91% in test [5].
On the same counts, the results for `Cc1cn2nnc(C(=O)NC3CCC(C)CC3)c2c(=O)[nH]1` (stereo not given) are -8.24%, -9.87%, -13.9%, -18% and -8.88%.
Consider `COc1ccc2cc3n(c2c1)CC(C)(C(=O)NC1CCCC1)N(c1ccc(C)cc1)C3=O` (stereo not given), for which the activity change, negative = inhibition in test [1] was 0.415%; in test [2] it was 4.28%; in test [3], 5.81%; in test [4], 3.58%; in test [5] it was -1.72%.
`Cc1ccc(CCNC(=O)c2cc3n(n2)CC(C)(C(=O)NC2CCCCCC2)N(C)C3=O)cc1` (stereo not given): the activity change, negative = inhibition in test [1] was -0.571%; in test [2], 4.03%; in test [3] it was -1.77%; in test [4], 3.24%; in test [5], 2%.
As to `c1ccc(-c2ccc(CNc3nc(-c4ccccn4)nnc3-c3ccccc3)cc2)cc1`, the activity change, negative = inhibition was 1.28% in test [1]; 0.939% in test [2]; 3.07% in test [3]; -20.6% in test [4]; -6.85% in test [5].
Turning to `CCCN1CCC2(CCN([S+](=O)([O-])c3cccs3)CC2)Oc2ccccc21`, the activity change, negative = inhibition in test [1] is -7.64%; in test [2], -6.52%; in test [3], -8.46%; in test [4], -18.6%; in test [5] it was -10.4%.
Regarding `COc1ccc2c(c1)CN(C(=O)CCN1CCC(Cc3ccccc3)CC1)CCS2`, the activity change, negative = inhibition in test [1] was -3.93%; in test [2], 2.94%; in test [3] it was -9.73%; in test [4], -21.7%; in test [5], -3.8%.
`CCC(C)NC(=O)c1ccc2c(=O)n(CC(C)C)c3nn(CC(=O)Nc4ccc(C)cc4C)c(=O)n3c2c1` (stereo not given): the activity change, negative = inhibition in test [1] stood at 7.41%; in test [2] it was 0.081%; in test [3], 14%; in test [4] it was 8.15%; in test [5], 7.02%.
On to `C[C@]1(CO)C2CC[C@H]3OC(=O)C[C@H]3[C@]2(C)CC[C@H]1OC(=O)Nc1ccccc1` (stereo not given in full), for which the activity change, negative = inhibition in test [1] was -4.96%; in test [2], -1.51%; in test [3], 0.395%; in test [4] it was 0.974%; in test [5] it was 0.11%.
In the same order, the values of `Cn1cnc(C(=O)N2CC(F)(F)C[C@H]2c2nc(C3CC3)no2)c1` are -3.83%, 0.271%, -2.21%, -9.52% and -13.4%.
